Experimental findings from patent publication US20250281631A1, “ANTIBODY-DRUG CONJUGATES AND PREPARATION METHODS AND USE THEREOF” (SICHUAN KELUN-BIOTECH BIOPHARMACEUTICAL CO., LTD, priority 2022, published 2025) are described below.

Assay [1] has as its system MDA-MB-453 cells. In words: Cell affinity of anti-human HER3 antibodies and ADCs by flow cytometry. In kind it is binding. The text has this: (§1) 1. Detection of Cell Affinity of Anti-Human HER3 Antibodies and their Drug Conjugates
(§2) The affinity of anti-human HER3 ADC to MDA-MB-453, NCI-H358, KPL-4, and A431 cells was detected by flow cytometry (Beckman, model Cytoflex).
(§3) Adherent MDA-MB-453, NCI-H358, KPL-4, A431 cells were digested with Tryple (manufacturer: Gibco) solution, counted, and an appropriate amount of the cells were taken, washed twice with 1×PBS, resuspended in 1% BSA in PBS solution, and then transferred to a 96-well sharp-bottom plate, 50 μl per well; candidate antibodies and drug conjugates thereof were diluted with 1% BSA in PBS solution by 3-fold or 2.5-fold serial dilution starting from 5 μg/mL, and then 50 μl of the diluted antibody or antibody-drug conjugate was added to the sharp-bottom plate containing the cells, and incubation was carried out at 4° C. for 40 minutes; the cells were washed twice with PBS, then added with 50 μl of diluted secondary antibody to each well, mixed, and incubated at 4° C. for 30 minutes; the cells were washed with PBS twice, then resuspended in 400 μl of PBS and detected by flow cytometry. Data processing: the average fluorescence signal values were exported, and then input into GraphPad Prism 6 software to calculate EC50. The results were shown in Table 32 and FIGS. 1A, 1B, 1C, and 1D. […] Moreover, when the naked antibody was formed into ADC through conjugation, the affinity to cells was less affected, and the affinity of 22B6 formed into ADC by conjugation was still the highest.
(In general: A flow cytometer gives signals particle by particle.)

The subject of assay [2] is MDA-MB-453 cells. In words: Cell affinity of anti-human HER3 antibody and its drug conjugates by flow cytometry (second test, Table 37). It is filed as binding. As to the method:
8. Detection of Cell Affinity of Anti-Human HER3 Antibody and its Drug Conjugates
The affinity of anti-human HER3 ADC to MDA-MB-453 cells was detected by flow cytometry (Beckman, model Cytoflex).
Adherent MDA-MB-453 cells were digested with Tryple (manufacturer: Gibco) solution, counted, and an appropriate amount of the cells were taken, washed twice with 1×PBS, resuspended in 1% BSA solution, and then transferred to a 96-well sharp-bottom plate, 50 μl per well; candidate antibodies and drug conjugates thereof were diluted with 1% BSA by 3-fold serial dilution starting from 15 μg/mL, and then 50 μl of the diluted antibody or antibody-drug conjugate was added to the sharp-bottom plate containing the cells, and incubation was carried out at 4° C. for 40 minutes; the cells were washed twice with PBS, then added with 50 μl of diluted secondary antibody to each well, mixed, and incubated at 4° C. for 30 minutes; the cells were washed with PBS twice, then resuspended in 200 μl of PBS and detected by flow cytometry. Data processing: the average fluorescence signal values were exported, and then input into GraphPad Prism 6 software to calculate EC50.

The test system of assay [3] is MDA-MB-453 cells. In words: Endocytosis effects of anti-human HER3 antibody and ADC (pHrodo, flow cytometry). It is filed as cell-based. As to conditions: for EC50 endocytosis effects: MDA-MB-453 cells, pHrodo, 24 hours. As for the experimental part: (§4) 9. Detection of Endocytosis Effects of Anti-Human HER3 Antibody Conjugates
The endocytosis effects of anti-human HER3 ADC in MDA-MB-453 cells were detected by flow cytometry (Beckman, model Cytoflex).
(§5) Adherent cells were digested with Trypsin-EDTA (0.25% Shanghai Basal Media Technologies) solution, counted, and adjusted the cell concentration to 1×10^5/ml with complete culture medium, then 100 μl of the cell suspension was added to the 96-well plate (the cell number is 1× 10^4/well), the 96-well plate was incubated in constant temperature CO2 incubator at 37° C. for 24 hours. Then took out the 96-well plate, discarded the medium, and added 50 μl of fresh complete culture medium to each well, the bi-specific antibody and control antibody were diluted with complete culture medium by serial dilution, the final concentrations were 0.55, 1.64, 4.94, 14.81, 44.44, 133.33, 400, 1200 ng/ml, 8 concentrations in total; PHrodo solution (Thermo) was diluted with complete culture medium to 12 μg/ml (the final concentration of PHrodo is 3 μg/ml); the serial diluted antibody candidates and diluted PHrodo solution were 1:1 mixed (30 μl 30 μl), incubated at room temperature in dark for 30 minutes; add 50 μl antibody candidate and PHrodo solution mixture to 96-well bplace, cultured at 37° C., 5% CO2 for 24 hours; took out the 96-well plate, discarded medium, washed once with sterile PBS, then cells were digested with 100 μl/well Trypsin-EDTA (0.25%), neutralized with 100 μl complete culture medium; then cells were separated by piping up and down and detected by flow cytometry. Data processing: the average fluorescence signal values were exported, and then input into GraphPad Prism 6 software to calculate EC50.

The next assay has as its system HCC1569 cells. Described as above. In kind it is cell-based. The conditions noted are these: 24 hours. As for the experimental part:
as §4, §5

The next assay concerns A431 cells. In words: Cell affinity of anti-human HER3 antibodies and ADCs by flow cytometry. In kind it is binding. The conditions noted are these: Table 32.
Description: as §1, §2, §3

In a further assay the test system is KPL-4 cells. The assay is described as above. It is filed as binding. The conditions noted are these: Table 32.
Description: as §1, §2, §3

A further assay has as its system NCI-H358 cells. Described as above. The conditions noted are these: Table 32. It is filed as binding.
Description: as §1, §2, §3

Assay [4] relates to NCI-H358 non-small cell lung cancer xenograft model. In words: In vivo drug efficacy in NCI-H358 CDX model. As to conditions: 1 mg/kg, 3 administrations, Day 32. Also on record: species or system female BALB/c-nu mice. As to the method:
5. Detection of In Vivo Drug Efficacy of Anti-Human HER3 Antibody-Drug Conjugates in H358 Model
NCI-H358 cells were cultured at 37° C., 5% CO2 in RPMI1640 medium containing 10% fetal bovine serum. The NCI-H358 cells in the exponential growth phase were collected, resuspended in PBS to an appropriate concentration, and inoculated subcutaneously in female BALB/c-nu mice to establish a non-small cell lung cancer model. When the average volume of the tumor was about 130 to 150 mm^3, the animals were randomly divided into 11 groups according to tumor size, including: vehicle control group (i.e., negative control group), hIgG1-A-01 1 mg/kg group, U1-59-A-01 1 mg/kg group, ADC 22B6-A-01 1 mg/kg group, hIgG1-B-01 1 mg/kg group, ADC 22B6-B-01 1 mg/kg group, hIgG1-A-07-A 1 mg/kg group, ADC 22B6-A-07-A-1 1 mg/kg and 3 mg/kg groups, hIgG1-B-03-1 1 mg/kg group, ADC 22B6-B-03-1 1 mg/kg group. All animals were administered via injection through tail vein on Day 0, Day 1, Day 4 and Day 10, 3 times in total. After administration, the tumor diameter was measured twice a week with a vernier caliper, and the tumor volume was calculated according to the following formula: V=0.5 a×b^2, wherein a and b represented the long and short diameters of the tumor, respectively, and the death of animals was observed and recorded every day.
The following formula was used to calculate the tumor growth inhibition rate TGI (%), which was used to evaluate the tumor inhibitory efficacy:
[formula] • wherein, • VTend represented a mean value of tumor volume at the end of the experiment in a treatment group • VTstart represented a mean value of tumor volume at the beginning of the administration in a treatment group • VCend represented a mean value of tumor volume at the end of the experiment in the negative control group • VCstart represented a mean value of tumor volume at the beginning of the administration in the negative control group

Assay [5] relates to MDA-MB-453 cells. Briefly: In vitro cytotoxicity of anti-human HER3 ADCs (second test, Table 39). It is filed as cell-based. The text has this:
10. In Vitro Cytotoxicity of Anti-Human HER3 Antibody-Drug Conjugates

B1: 22B6: fully human anti-HER3 antibody; heavy chain SEQ ID NO: 17, light chain SEQ ID NO: 18 (antibody)
heavy: EVHLVESGGGVVQPGRSLRLSCATSGFTFRSYGMHWVRQAPGKGLEWVAVIWYDGSNKYYADSVKGRFTISRDISKNTLYLQMNSLTAEDTAVYYCARYYYDSNGYYDAFDIWGQGTMVTVSSASTKGPSVFPLAPSSKSTSGGTAALGCLVKDYFPEPVTVSWNSGALTSGVHTFPAVLQSSGLYSLSSVVTVPSSSLGTQTYICNVNHKPSNTKVDKRV[in this place human IgG1 Fc]
light: DIQLTQSPSFLSASVGDRVTITCRASQGISNYLAWYQQKPGKAPKLLIFAASTLQSGVPSRFSGSGSGAEFTLTISSLEPEDFATYYCQQLNSYPITFGQGTRLEIKRTVAAPSVFIFPPSDEQLKSGTASVVCLLNNFYPREAKVQWKVDNALQSGNSQESVTEQDSKDSTYSLSSTLTLSKADYEKHKVYACEVTHQGLSSPVTKSFNRGEC
modifications: heavy chain of 22B6D2-hIgG1; light chain of 22B6D2-hIgG1
Regarding B1, the EC50 cell affinity with MDA-MB-453 cells [1] (MDA-MB-453 cells, flow cytometry, Table 32) was 0.03919 µg/mL; in the assay on MDA-MB-453 cells [2], 0.08539 µg/mL. For the same molecule, in the assay with MDA-MB-453 cells [1] (result in words, MDA-MB-453, NCI-H358, KPL-4, A431 cells, compared with U1-59 control), the affinity to cells entry is recorded as “significantly higher than that of the naked control antibody U1-59”. Moreover, the EC50 endocytosis effects with MDA-MB-453 cells [3] is 0.00998 µg/mL; with HCC1569 cells, 0.02877 µg/mL. The endocytosis effects result with MDA-MB-453 cells [3] (result in words, MDA-MB-453 and HCC1569 cells (FIGS. 10 and 11)) is “better or not worse than the control antibody U1-59 and its conjugated ADC”.

B2: 22B6-B-01: ADC of antibody 22B6D2-hIgG1 conjugated to drug-linker B-01, DAR 8.07 (conjugate)
heavy: EVHLVESGGGVVQPGRSLRLSCATSGFTFRSYGMHWVRQAPGKGLEWVAVIWYDGSNKYYADSVKGRFTISRDISKNTLYLQMNSLTAEDTAVYYCARYYYDSNGYYDAFDIWGQGTMVTVSSASTKGPSVFPLAPSSKSTSGGTAALGCLVKDYFPEPVTVSWNSGALTSGVHTFPAVLQSSGLYSLSSVVTVPSSSLGTQTYICNVNHKPSNTKVDKRV[in this place human IgG1 Fc]
light: DIQLTQSPSFLSASVGDRVTITCRASQGISNYLAWYQQKPGKAPKLLIFAASTLQSGVPSRFSGSGSGAEFTLTISSLEPEDFATYYCQQLNSYPITFGQGTRLEIKRTVAAPSVFIFPPSDEQLKSGTASVVCLLNNFYPREAKVQWKVDNALQSGNSQESVTEQDSKDSTYSLSSTLTLSKADYEKHKVYACEVTHQGLSSPVTKSFNRGEC
Take B2: the EC50 cell affinity in the assay with A431 cells stood at 0.03278 µg/mL; with KPL-4 cells, 0.0519 µg/mL; in the assay on NCI-H358 cells, 0.02979 µg/mL. Moreover, in assay [4] (tail vein injection), the T/C (as a rule, the ratio of treated to control) is reported as 52.02%. Also, the TGI (commonly how far tumour growth fell short of that in controls) in assay [4] (tail vein injection) was found to be 64.68%. Moreover, the “Tumor volume (x ± SEM)” value in assay [4] (tail vein injection) is reported as 271.94 ± 60.53 mm^3. Also, in [4] (tail vein), the “tumor growth inhibition rate (TGI)” value came out at 64.68%.

B3: 22B6-B-04-2 (conjugate)
heavy: EVHLVESGGGVVQPGRSLRLSCATSGFTFRSYGMHWVRQAPGKGLEWVAVIWYDGSNKYYADSVKGRFTISRDISKNTLYLQMNSLTAEDTAVYYCARYYYDSNGYYDAFDIWGQGTMVTVSSASTKGPSVFPLAPSSKSTSGGTAALGCLVKDYFPEPVTVSWNSGALTSGVHTFPAVLQSSGLYSLSSVVTVPSSSLGTQTYICNVNHKPSNTKVDKRV[in this place human IgG1 Fc]
light: DIQLTQSPSFLSASVGDRVTITCRASQGISNYLAWYQQKPGKAPKLLIFAASTLQSGVPSRFSGSGSGAEFTLTISSLEPEDFATYYCQQLNSYPITFGQGTRLEIKRTVAAPSVFIFPPSDEQLKSGTASVVCLLNNFYPREAKVQWKVDNALQSGNSQESVTEQDSKDSTYSLSSTLTLSKADYEKHKVYACEVTHQGLSSPVTKSFNRGEC
Consider B3, for which the EC50 cell affinity in the assay with MDA-MB-453 cells [2] worked out at 0.1949 µg/mL. In addition, the EC50 endocytosis effects with MDA-MB-453 cells [3] was determined as 0.00776 µg/mL; with HCC1569 cells, 0.02043 µg/mL. The midpoint of inhibition in the assay on MDA-MB-453 cells [5] (MDA-MB-453 cells, 6 days, CCK8, Table 39), the IC50, lay at 0.07 nM. For the same molecule, in the assay with MDA-MB-453 cells [5] (result in words), the “killing effects in MDA-MB-453 cells” value is recorded as “significant killing effects”.
